Results from the supplement of paper PMC8728848.
The list shows a part of the results.

Experiments:
Assay in all cases: glycan array binding signal (z-score within array); higher = stronger binding
Conditions in all cases: glycan notation: IUPAC condensed, linker removed
[1] = target: Fuc(a1-2)Gal6S(b1-3)GlcNAc6S
Summary of the method: (§1)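 Negative Z-scores can be read as non-binding. The Z-score is calculated within each array and then averaged across arrays of one protein sequence at different concentrations or buffers and across linkers. Arrays, 3228 in all, were curated from the Consortium for Functional Glycomics database and kept only where the protein sequence was available.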

[2] = target: Fuc(a1-2)Gal6S(b1-4)Glc
Summary of the method: as §1

[3] = target: Fuc(a1-2)Gal6S(b1-4)Glc6S
Summary of the method: as §1

[4] = target: Fuc(a1-2)[Gal(a1-3)]Gal
Summary of the method: as §1

[5] = target: Fuc(a1-2)[Gal(a1-3)]Gal(b1-3)GalNAc
Summary of the method: as §1

[6] = target: Fuc(a1-2)[Gal(a1-3)]Gal(b1-3)GalNAc(b1-3)Gal(a1-4)Gal(b1-4)Glc
Summary of the method: as §1

[7] = target: Fuc(a1-2)[Gal(a1-3)]Gal(b1-3)GlcNAc
Summary of the method: as §1

[8] = target: Fuc(a1-2)[Gal(a1-3)]Gal(b1-3)GlcNAc(b1-2)Man(a1-3)[Fuc(a1-2)[Gal(a1-3)]Gal(b1-3)GlcNAc(b1-2)Man(a1-6)]Man(b1-4)GlcNAc(b1-4)GlcNAc
Summary of the method: as §1

[9] = target: Fuc(a1-2)[Gal(a1-3)]Gal(b1-3)GlcNAc(b1-2)Man(a1-3)[Fuc(a1-2)[Gal(a1-3)]Gal(b1-3)GlcNAc(b1-2)Man(a1-6)]Man(b1-4)GlcNAc(b1-4)[Fuc(a1-6)]GlcNAc
Summary of the method: as §1

[10] = target: Fuc(a1-2)[Gal(a1-3)]Gal(b1-3)GlcNAc(b1-3)GalNAc
Summary of the method: as §1

[11] = target: Fuc(a1-2)[Gal(a1-3)]Gal(b1-3)GlcNAc(b1-6)GalNAc
Summary of the method: as §1

[12] = target: Fuc(a1-2)[Gal(a1-3)]Gal(b1-4)Glc
Summary of the method: as §1

[13] = target: Fuc(a1-2)[Gal(a1-3)]Gal(b1-4)GlcNAc
Summary of the method: as §1

[14] = target: Fuc(a1-2)[Gal(a1-3)]Gal(b1-4)GlcNAc(b1-2)Man
Summary of the method: as §1

[15] = target: Fuc(a1-2)[Gal(a1-3)]Gal(b1-4)GlcNAc(b1-2)Man(a1-3)[Fuc(a1-2)[Gal(a1-3)]Gal(b1-4)GlcNAc(b1-2)Man(a1-6)]Man(b1-4)GlcNAc(b1-4)GlcNAc
Summary of the method: as §1

[16] = target: Fuc(a1-2)[Gal(a1-3)]Gal(b1-4)GlcNAc(b1-2)Man(a1-3)[Fuc(a1-2)[Gal(a1-3)]Gal(b1-4)GlcNAc(b1-2)Man(a1-6)]Man(b1-4)GlcNAc(b1-4)[Fuc(a1-6)]GlcNAc
Summary of the method: as §1

[17] = target: Fuc(a1-2)[Gal(a1-3)]Gal(b1-4)GlcNAc(b1-3)GalNAc
Summary of the method: as §1

[18] = target: Fuc(a1-2)[Gal(a1-3)]Gal(b1-4)GlcNAc(b1-6)GalNAc
Summary of the method: as §1

[19] = target: Fuc(a1-2)[Gal(a1-3)]Gal(b1-4)[Fuc(a1-3)]Glc
Summary of the method: as §1

[20] = target: Fuc(a1-2)[Gal(a1-3)]Gal(b1-4)[Fuc(a1-3)]GlcNAc
Summary of the method: as §1

[21] = target: Fuc(a1-2)[Gal(a1-3)]Gal(b1-4)[Fuc(a1-3)]GlcNAc(b1-3)GalNAc
Summary of the method: as §1

[22] = target: Fuc(a1-2)[Gal(a1-4)]Gal(b1-4)GlcNAc
Summary of the method: as §1

[23] = target: Fuc(a1-2)[GalNAc(a1-3)]Gal
Summary of the method: as §1

[24] = target: Fuc(a1-2)[GalNAc(a1-3)]Gal(b1-3)GalNAc(a1-3)[Fuc(a1-2)]Gal(b1-4)GlcNAc
Summary of the method: as §1

[25] = target: Fuc(a1-2)[GalNAc(a1-3)]Gal(b1-3)GalNAc(b1-3)Gal(a1-4)Gal(b1-4)Glc
Summary of the method: as §1

[26] = target: Fuc(a1-2)[GalNAc(a1-3)]Gal(b1-3)GlcNAc
Summary of the method: as §1

[27] = target: Fuc(a1-2)[GalNAc(a1-3)]Gal(b1-3)GlcNAc(b1-2)Man(a1-3)[Fuc(a1-2)[GalNAc(a1-3)]Gal(b1-3)GlcNAc(b1-2)Man(a1-6)]Man(b1-4)GlcNAc(b1-4)GlcNAc
Summary of the method: as §1

[28] = target: Fuc(a1-2)[GalNAc(a1-3)]Gal(b1-3)GlcNAc(b1-2)Man(a1-3)[Fuc(a1-2)[GalNAc(a1-3)]Gal(b1-3)GlcNAc(b1-2)Man(a1-6)]Man(b1-4)GlcNAc(b1-4)[Fuc(a1-6)]GlcNAc
Summary of the method: as §1

[29] = target: Fuc(a1-2)[GalNAc(a1-3)]Gal(b1-3)GlcNAc(b1-3)GalNAc
Summary of the method: as §1

[30] = target: Fuc(a1-2)[GalNAc(a1-3)]Gal(b1-3)GlcNAc(b1-6)GalNAc
Summary of the method: as §1

[31] = target: Fuc(a1-2)[GalNAc(a1-3)]Gal(b1-4)Glc
Summary of the method: as §1

[32] = target: Fuc(a1-2)[GalNAc(a1-3)]Gal(b1-4)GlcNAc
Summary of the method: as §1

[33] = target: Fuc(a1-2)[GalNAc(a1-3)]Gal(b1-4)GlcNAc(b1-2)Man
Summary of the method: as §1

[34] = target: Fuc(a1-2)[GalNAc(a1-3)]Gal(b1-4)GlcNAc(b1-2)Man(a1-3)[Fuc(a1-2)[GalNAc(a1-3)]Gal(b1-4)GlcNAc(b1-2)Man(a1-6)]Man(b1-4)GlcNAc(b1-4)GlcNAc
Summary of the method: as §1

[35] = target: Fuc(a1-2)[GalNAc(a1-3)]Gal(b1-4)GlcNAc(b1-2)Man(a1-3)[Fuc(a1-2)[GalNAc(a1-3)]Gal(b1-4)GlcNAc(b1-2)Man(a1-6)]Man(b1-4)GlcNAc(b1-4)[Fuc(a1-6)]GlcNAc
Summary of the method: as §1

[36] = target: Fuc(a1-2)[GalNAc(a1-3)]Gal(b1-4)GlcNAc(b1-3)Gal(b1-4)GlcNAc
Summary of the method: as §1

[37] = target: Fuc(a1-2)[GalNAc(a1-3)]Gal(b1-4)GlcNAc(b1-3)Gal(b1-4)GlcNAc(b1-3)Gal(b1-4)GlcNAc
Summary of the method: as §1

[38] = target: Fuc(a1-2)[GalNAc(a1-3)]Gal(b1-4)GlcNAc(b1-3)GalNAc
Summary of the method: as §1

[39] = target: Fuc(a1-2)[GalNAc(a1-3)]Gal(b1-4)GlcNAc(b1-3)[Fuc(a1-2)[GalNAc(a1-3)]Gal(b1-4)GlcNAc(b1-6)]GalNAc
Summary of the method: as §1

[40] = target: Fuc(a1-2)[GalNAc(a1-3)]Gal(b1-4)GlcNAc(b1-6)GalNAc
Summary of the method: as §1

[41] = target: Fuc(a1-2)[GalNAc(a1-3)]Gal(b1-4)[Fuc(a1-3)]GlcNAc
Summary of the method: as §1

[42] = target: Fuc(a1-2)[GalNAc(a1-3)]Gal(b1-4)[Fuc(a1-3)]GlcNAc(b1-3)GalNAc
Summary of the method: as §1

[43] = target: Fuc(a1-2)[GalNAc(a1-4)]Gal(b1-4)GlcNAc
Summary of the method: as §1

[44] = target: Fuc(a1-2)[GalNAc(b1-3)]Gal
Summary of the method: as §1

[45] = target: Fuc(a1-3)GlcNAc
Summary of the method: as §1

B1: Clrb (Mus musculus) (protein)
chain: ITGATKTEQIPVNKTYAACPQNWIGVENKCFYFSEYPSNWTFAQAFCMAQEAQLARFDNQDELNFLMRYKANFDSWIGLHRESSEHPWKWTDNTEYNNTIPIRGEERFAYLNNNGISSTRIYSLRMWICSKLNSYSLHCQTPFFPSGTKHHHHHHHHG
glycan array binding signal (z-score) [1]: -0.079
glycan array binding signal (z-score) [2]: -0.313
glycan array binding signal (z-score) [3]: -0.186
glycan array binding signal (z-score) [4]: -0.293
glycan array binding signal (z-score) [5]: -0.421
glycan array binding signal (z-score) [6]: -0.424
glycan array binding signal (z-score) [7]: -0.244
glycan array binding signal (z-score) [8]: -0.206
glycan array binding signal (z-score) [9]: -0.384
glycan array binding signal (z-score) [10]: -0.316
glycan array binding signal (z-score) [11]: -0.43
glycan array binding signal (z-score) [12]: -0.463
glycan array binding signal (z-score) [13]: -0.382
glycan array binding signal (z-score) [14]: -0.471
glycan array binding signal (z-score) [15]: -0.479
glycan array binding signal (z-score) [16]: -0.342
glycan array binding signal (z-score) [17]: -0.35
glycan array binding signal (z-score) [18]: -0.025
glycan array binding signal (z-score) [19]: -0.477
glycan array binding signal (z-score) [20]: -0.16
glycan array binding signal (z-score) [21]: -0.354
glycan array binding signal (z-score) [22]: -0.157
glycan array binding signal (z-score) [23]: -0.264
glycan array binding signal (z-score) [24]: -0.188
glycan array binding signal (z-score) [25]: -0.407
glycan array binding signal (z-score) [26]: -0.508
glycan array binding signal (z-score) [27]: -0.318
glycan array binding signal (z-score) [28]: -0.308
glycan array binding signal (z-score) [29]: -0.459
glycan array binding signal (z-score) [30]: -0.441
glycan array binding signal (z-score) [31]: -0.353
glycan array binding signal (z-score) [32]: 2.14
glycan array binding signal (z-score) [33]: -0.258
glycan array binding signal (z-score) [34]: -0.491
glycan array binding signal (z-score) [35]: -0.417
glycan array binding signal (z-score) [36]: 0.254
glycan array binding signal (z-score) [37]: -0.215
glycan array binding signal (z-score) [38]: -0.327
glycan array binding signal (z-score) [39]: -0.374
glycan array binding signal (z-score) [40]: 0.23
glycan array binding signal (z-score) [41]: -0.385
glycan array binding signal (z-score) [42]: -0.299
glycan array binding signal (z-score) [43]: 1.88
glycan array binding signal (z-score) [44]: -0.248
glycan array binding signal (z-score) [45]: -0.352
